# Biological target: T1, MAO-B (Homo sapiens, UniProt P27338)
# T1 sequence (P27338 1-520): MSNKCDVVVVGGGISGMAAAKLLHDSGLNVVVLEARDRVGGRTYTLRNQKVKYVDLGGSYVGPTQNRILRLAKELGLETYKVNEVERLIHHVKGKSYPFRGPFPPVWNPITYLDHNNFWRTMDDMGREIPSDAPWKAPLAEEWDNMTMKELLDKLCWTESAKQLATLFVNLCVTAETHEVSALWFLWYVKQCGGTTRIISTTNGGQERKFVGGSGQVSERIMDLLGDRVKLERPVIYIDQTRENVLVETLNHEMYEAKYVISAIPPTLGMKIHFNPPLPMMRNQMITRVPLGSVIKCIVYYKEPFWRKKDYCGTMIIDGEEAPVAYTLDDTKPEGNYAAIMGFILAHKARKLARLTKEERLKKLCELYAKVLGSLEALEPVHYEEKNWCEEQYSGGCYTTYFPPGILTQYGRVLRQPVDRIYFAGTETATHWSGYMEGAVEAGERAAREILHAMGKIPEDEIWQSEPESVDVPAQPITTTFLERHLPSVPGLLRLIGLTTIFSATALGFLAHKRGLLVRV
# Conditions: IC50 of MAO-A/IC50 of MAO-B
row,Structure (SMILES),SI (selectivity index)
1,O=C(Cn1nc(N2CCC(Cc3ccccc3)CC2)ccc1=O)NN=Cc1ccccc1 [Compound S1],2.34
2,O=C(Cn1nc(N2CCC(Cc3ccccc3)CC2)ccc1=O)NN=Cc1ccc(Br)cc1 [Compound S2],1.02
3,"O=C(Cn1nc(N2CCC(Cc3ccccc3)CC2)ccc1=O)NN=Cc1ccccc1Br [Compound S3, N′-2-bromobenzylidene-2-(3-(4-benzylpiperidin-1-yl)-6-oxopyridazin-1(6H)-yl)acetohydrazide]",0.87
4,"O=C(Cn1nc(N2CCC(Cc3ccccc3)CC2)ccc1=O)NN=Cc1cccc(Br)c1 [Compound S4, N′-3-bromobenzylidene-2-(3-(4-benzylpiperidin-1-yl)-6-oxopyridazin-1(6H)-yl)acetohydrazide]",4.37
5,"O=C(Cn1nc(N2CCC(Cc3ccccc3)CC2)ccc1=O)NN=Cc1cccc(Cl)c1 [Compound S5, N′-3-chlorobenzylidene-2-(3-(4-benzylpiperidin-1-yl)-6-oxopyridazin-1(6H)-yl)acetohydrazide]",19.04
6,O=C(Cn1nc(N2CCC(Cc3ccccc3)CC2)ccc1=O)NN=Cc1ccc(Cl)cc1 [Compound S6],1.44
7,"O=C(Cn1nc(N2CCC(Cc3ccccc3)CC2)ccc1=O)NN=Cc1cccc(F)c1 [Compound S7, N′-3-fluorobenzylidene-2-(3-(4-benzylpiperidin-1-yl)-6-oxopyridazin-1(6H)-yl)acetohydrazide]",2.77
8,O=C(Cn1nc(N2CCC(Cc3ccccc3)CC2)ccc1=O)NN=Cc1ccc(F)cc1 [Compound S8],1.49
9,"Cc1ccccc1C=NNC(=O)Cn1nc(N2CCC(Cc3ccccc3)CC2)ccc1=O [Compound S9, N′-2-methylbenzylidene-2-(3-(4-benzylpiperidin-1-yl)-6-oxopyridazin-1(6H)-yl)acetohydrazide]",0.62
10,"Cc1cccc(C=NNC(=O)Cn2nc(N3CCC(Cc4ccccc4)CC3)ccc2=O)c1 [Compound S10, N′-3-methylbenzylidene-2-(3-(4-benzylpiperidin-1-yl)-6-oxopyridazin-1(6H)-yl)acetohydrazide]",1.28
11,COc1cccc(C=NNC(=O)Cn2nc(N3CCC(Cc4ccccc4)CC3)ccc2=O)c1 [Compound S11],2.96
12,COc1ccc(C=NNC(=O)Cn2nc(N3CCC(Cc4ccccc4)CC3)ccc2=O)cc1 [Compound S12],0.72
13,CN(C)c1ccc(C=NNC(=O)Cn2nc(N3CCC(Cc4ccccc4)CC3)ccc2=O)cc1 [Compound S13],0.87

# Next, values leading:
row,SI (selectivity index),Structure (SMILES)
1,6.67,O=C(Cn1nc(N2CCC(Cc3ccccc3)CC2)ccc1=O)NN=Cc1ccc([N+](=O)[O-])cc1 [Compound S14]
2,0.69,"CCc1ccc(C=NNC(=O)Cn2nc(N3CCC(Cc4ccccc4)CC3)ccc2=O)cc1 [Compound S15, N′-4-ethylbenzylidene-2-(3-(4-benzylpiperidin-1-yl)-6-oxopyridazin-1(6H)-yl)acetohydrazide]"
3,6.28,"N#Cc1ccccc1C=NNC(=O)Cn1nc(N2CCC(Cc3ccccc3)CC2)ccc1=O [Compound S16, N′-2-cyanobenzylidene-2-(3-(4-benzylpiperidin-1-yl)-6-oxopyridazin-1(6H)-yl)acetohydrazide]"
4,2.03,"N#Cc1cccc(C=NNC(=O)Cn2nc(N3CCC(Cc4ccccc4)CC3)ccc2=O)c1 [Compound S17, N′-3-cyanobenzylidene-2-(3-(4-benzylpiperidin-1-yl)-6-oxopyridazin-1(6H)-yl)acetohydrazide]"
5,2.05,"N#Cc1ccc(C=NNC(=O)Cn2nc(N3CCC(Cc4ccccc4)CC3)ccc2=O)cc1 [Compound S18, N′-4-cyanobenzylidene-2-(3-(4-benzylpiperidin-1-yl)-6-oxopyridazin-1(6H)-yl)acetohydrazide]"
6,4.66,"COc1ccccc1C=NNC(=O)Cn1nc(N2CCC(Cc3ccccc3)CC2)ccc1=O [Compound S19, N′-2-methoxybenzylidene-2-(3-(4-benzylpiperidin-1-yl)-6-oxopyridazin-1(6H)-yl)acetohydrazide]"
7,5.23,"COc1cc(C=NNC(=O)Cn2nc(N3CCC(Cc4ccccc4)CC3)ccc2=O)cc(OC)c1 [Compound S20, N′-3,5-dimethoxybenzylidene-2-(3-(4-benzylpiperidin-1-yl)-6-oxopyridazin-1(6H)-yl)acetohydrazide]"
8,1.22,"COc1cc(OC)c(C=NNC(=O)Cn2nc(N3CCC(Cc4ccccc4)CC3)ccc2=O)c(OC)c1 [Compound S21, N′-2,4,6-trimethoxybenzylidene-2-(3-(4-benzylpiperidin-1-yl)-6-oxopyridazin-1(6H)-yl)acetohydrazide]"
9,0.75,"COc1cccc(C=NNC(=O)Cn2nc(N3CCC(Cc4ccccc4)CC3)ccc2=O)c1OC [Compound S22, N′-2,3-dimethoxybenzylidene-2-(3-(4-benzylpiperidin-1-yl)-6-oxopyridazin-1(6H)-yl)acetohydrazide]"
10,2.59,"COc1cc(C=NNC(=O)Cn2nc(N3CCC(Cc4ccccc4)CC3)ccc2=O)cc(OC)c1OC [Compound S23, N′-3,4,5-trimethoxybenzylidene-2-(3-(4-benzylpiperidin-1-yl)-6-oxopyridazin-1(6H)-yl)acetohydrazide]"
11,0.39,"COc1ccc(C=NNC(=O)Cn2nc(N3CCC(Cc4ccccc4)CC3)ccc2=O)c(OC)c1 [Compound S24, N′-2,4-dimethoxybenzylidene-2-(3-(4-benzylpiperidin-1-yl)-6-oxopyridazin-1(6H)-yl)acetohydrazide]"
